Source: the supplement of paper PMC12217912
The other results are listed elsewhere or left out. Sequences were assembled here from the parent chain. Values near 0.05 are background.

B1: TEV protease; numbered along this chain (parent)
chain: MGESLFKGPRDYNPISSSICHLTNESDGHTTSLYGIGFGPFIITNKHLFRRNNGTLVVQSLHGVFKVKDTTTLQQHLVDGRDMIIIRMPKDFPPFPQKLKFREPQREERICLVTTNFQTKSMSSMVSDTSCTFPSGDGIFWKHWIQTKDGQCGSPLVSTRDGFIVGIHSASNFTNTNNYFTSVPKNFMELLTNQEAQQWVSGWRLNADSVLWGGHKVFMVKPEEPFQPVKEATQL

Variants of: B1
Assay: raw area under fraction-flipped curve 0-4 h after induction (AUC4h, not background-subtracted), DNA-recorder readout of cleavage of the substrate (dimensionless); higher = more cleavage of the substrate by the protease variant
Details: temperature: 34 °C; time window: 0-4 h after rhamnose induction
Description: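 In vivo DNA recorder in E. coli TOP10(DE3) ΔrhaA at 34 °C. Each TEVp single-site mutant (parent TEVp 0) is paired with a single-site variant of the 7-mer TEVs (canonical ENLYFQ|S). The substrate sits between flexible linkers in a Bxb1-sfGFP-TEVs-SsrA fusion, so cleavage stabilises Bxb1 and speeds flipping of a recombination array, read by NGS. The value is the raw area under the fraction-flipped curve over 0-4 h after rhamnose induction (AUC4h), with ≥20 reads per time point. It is not background-subtracted; inactive controls average about 0.047.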
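Also: Bxb1 expression induced with 0.2% (w/v) L-rhamnose at OD600 near 0.5, cultures sampled hourly, flipped fraction per protease–substrate barcode pair counted by paired-end Illumina sequencing.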

Variant	area with substrate CNLYFQS	area with substrate DNLYFQS	area with substrate GNLYFQS	area with substrate HNLYFQS	area with substrate KNLYFQS	area with substrate MNLYFQS	area with substrate NNLYFQS	area with substrate PNLYFQS	area with substrate QNLYFQS	area with substrate SNLYFQS	area with substrate TNLYFQS	area with substrate VNLYFQS	area with substrate WNLYFQS	area with substrate YNLYFQS	area with substrate INLYFQS	area with substrate LNLYFQS	area with substrate FNLYFQS	area with substrate RNLYFQS
T129F	0.0757	0.0619	0.0818	0.0564	0.0753	0.0679	0.0614	0.0551	0.0465	0.0507	0.0548	0.0558	0.0601	0.0617	–	–	–	–
T129C	0.055	0.0867	–	–	0.0644	–	0.0728	–	–	0.0558	0.0777	–	0.0637	–	0.0724	0.0694	–	–
T129V	0.0693	0.0896	0.0878	0.0639	0.0645	0.0637	–	0.0733	0.0664	0.0474	0.0681	–	0.046	0.0553	0.0615	0.0575	–	–
E107G	0.0454	0.0729	–	0.0628	–	0.0725	–	0.0682	–	–	0.0637	0.0711	0.0589	–	–	0.0652	–	–
E107H	0.0686	0.0755	–	–	–	–	0.0611	0.0606	–	–	0.04	0.0605	0.0598	–	–	–	–	–
D137Y	0.0606	0.0679	0.0937	0.0593	–	–	–	0.0721	–	–	0.0381	0.0574	–	–	–	–	–	–
I110S	0.0592	0.0526	–	0.0484	0.0543	0.0579	–	–	–	0.0666	0.083	–	0.0425	0.041	0.0463	0.0547	0.0522	–
S135G	0.0623	0.0476	0.0598	–	0.06	0.0607	0.0533	0.0655	–	–	0.0512	–	0.0594	0.0519	–	0.0264	0.0587	0.0561
S135V	0.057	0.0666	0.0624	0.0597	0.0646	–	–	0.0608	0.0659	0.0713	0.0693	–	0.0592	0.062	0.0663	0.0606	–	–
S135P	0.0754	0.0907	0.061	0.0679	0.0474	0.0641	–	0.0595	–	–	–	0.0455	0.06	–	–	–	–	–
R109E	0.0477	0.0631	0.0721	0.0543	0.0621	0.071	0.0598	0.0657	–	0.0643	–	0.0768	0.0734	–	–	0.0761	0.0666	0.0591
F117R	0.0507	0.0783	–	0.0629	–	–	–	–	0.0674	–	0.0686	–	–	–	–	–	–	–
T115E	0.0502	0.0715	0.0579	0.0718	0.0676	0.0692	–	0.061	–	0.0638	–	0.0612	0.068	0.0719	0.0393	0.0697	0.0626	–
T115F	0.062	0.0811	–	0.0705	–	0.0741	0.0778	0.0717	–	0.0595	0.0608	–	0.0508	0.067	–	0.0587	0.0669	–
D128V	0.121	0.105	–	0.0756	–	0.0516	0.0831	0.0751	–	–	0.165	–	0.0657	–	0.0893	0.0712	0.0667	0.0547
C111W	0.0759	0.0859	–	0.0729	–	–	–	0.0772	–	0.0724	–	–	0.0722	0.0552	0.0589	–	–	–
